Reference: PubChem BioAssay AID651820 (National Center for Advancing Translational Sciences (NCATS), 2012)
Hit rate of the full screen: of about 340,000 compounds, about 12,000 (3.5%) were called active. Inconclusive means that the source gave no clear call. Such entries were picked first, then a sample of the others. Calls come from the whole dose curve; as a rule, active = well fitted inhibition curve with a large enough effect; inconclusive = small, poorly fitted or top-dose-only effect, or another doubt; inactive = no such curve, though single readings can be large or run the other way. No potency is given beside an inconclusive call; the fits are too rough.

assay: qHTS Assay for Inhibitors of Hepatitis C Virus (HCV); settings: Huh7.5.1 HCVcc-Cre (HCVcc is cell-culture hepatitis C virus) infection, luciferase reporter, 44 h; series mostly up to 41.8 µM
Summary of the method: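 Infectious HCV cell culture screen: compound-treated cells (1,000/well, pre-plated 4 h) are infected with HCVcc-Cre at roughly 0.5 moi and grown 44 h. Infection is quantified by luciferase signal after 15 min substrate incubation at room temperature.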
Potency is the fitted concentration of half-maximal effect; tags give direction and shape of the fitted curve.

SMILES	Potency
C=CCNC(=S)N/N=C/c1ccc(C)c([N+](=O)[O-])c1	inactive
CCOC(=O)c1sc2ncnc(N3CCN(C(=O)OCC)CC3)c2c1C	inactive
Cc1cc2c(=Cc3ccc(N(C)C)cc3)c3ccccc3n2[n+]1C	active: 1.26 µM
Cc1cc(NC(=O)c2c(F)cccc2Cl)no1	inactive
Cc1cc(C)cc(-n2ncc3c2CCCC3NC(=O)c2cc(C)n(C)n2)c1 (stereo unspecified)	inconclusive [inhibitor, single point]
COc1cc2cnc(-c3ccsc3)cc2cc1OC	inconclusive [inhibitor, full curve]
CCC1(c2ccc(F)cc2)NC(=O)N(CC(=O)Nc2cccc(S(=O)(=O)N3CCCCC3)c2)C1=O (stereo unspecified)	active: 10 µM
Cc1cccc(C(=O)c2cn[nH]c2-c2ccc(C)cc2O)c1	inactive
CC(C)Cc1nc(S(=O)(=O)c2ccc(Cl)cc2)c(N2CCOCC2)o1	inactive
CCc1c(-c2ccccc2)nc2sc3c(c2c1N)CCCC3	active: 25.1 µM
NC(N)=NS(=O)(=O)c1ccc(N/C=C/C(=O)c2ccc(Cl)c(Cl)c2)cc1	inconclusive [inhibitor, single point]
Cn1c(=O)c2ncn(CC(=O)Nc3nc(-c4ccc(Cl)cc4)cs3)c2n(C)c1=O	inconclusive [inhibitor, single point]
Oc1ccc(C2CNCc3sccc32)cc1O (stereo unspecified)	inconclusive [inhibitor, single point]
COc1cc(NC(=S)N2CCc3ccccc3C2)cc(OC)c1	inactive
Cc1ccc(CN(C)C(=O)CN2C(=O)NC3(CCCc4ccccc43)C2=O)c(C)c1 (stereo unspecified)	active: 10 µM
CCCCNCC(=O)Nc1sc(C)c(C)c1C(=O)OCC	active: 11.2 µM
O=C(c1ccco1)n1nc(NCc2ccccc2)nc1NCc1ccccc1	inconclusive [inhibitor, full curve, poor fit]
COCCn1c(CN2CCN(C(c3ccccc3)c3ccccc3)CC2)nc2c1c(=O)n(C)c(=O)n2C	inconclusive [inhibitor, partial curve]
CN(C)CCCNc1c2ccccc2nc2ccccc12	active: 7.94 µM
Cc1ccc(CNC(=O)c2ccc(N3CCC4(CC3)CC(c3ccccc3)=NO4)c(N)c2)cc1	inconclusive [inhibitor, single point]
O=C(O)C[C@H]1c2cc(C(F)(F)F)ccc2S(=O)(=O)N1Cc1ccccc1	inactive
COc1ccc2oc(C(=O)OCC(=O)N(C)CC(=O)Nc3ccc(F)cc3)c(C)c2c1	inactive
Cc1nc(N2CCN(Cc3nc4ccccc4[nH]3)CC2)c2oc3ccccc3c2n1	inconclusive [inhibitor, single point]
C=CCc1cccc(/C=N/NC(=O)CNc2ccccc2OC)c1O	inconclusive [inhibitor, single point]

SMILES	Potency
Cc1sc(NC(=O)c2cccs2)c(C(=O)OC(C)C)c1C	inactive
CCS(=O)(=O)c1nc(S(=O)(=O)c2ccc(C)cc2)c(N2CC(C)CC(C)C2)s1 (stereo unspecified)	inconclusive [inhibitor, single point]
COc1ccccc1C(=O)NCCC(=O)N1CCCC(C(F)(F)F)C1 (stereo unspecified)	inactive
O=C(CCCn1c(=O)c2ccccc2n(CC(=O)NCc2ccco2)c1=O)NCc1ccco1	inactive
COc1cc2ccccc2cc1C(=O)Nc1ccc(C)cc1	inconclusive [inhibitor, single point]
Cc1ccc(NC(=O)CN(c2ccc(Cl)cc2)S(=O)(=O)c2cc([N+](=O)[O-])ccc2Cl)c(C)c1	inconclusive [inhibitor, partial curve]
CCc1nc2ccc(C(=O)NC3CCC(C)CC3)cc2nc1CC (stereo unspecified)	inconclusive [inhibitor, partial curve]
Cc1ccc2[nH]c3c(c2c1)CN(C(=O)CN1c2ccc(F)cc2CCC1C)CC3 (stereo unspecified)	inconclusive [inhibitor, partial curve]
COc1ccc(OC)c(CNC(=O)C(C)n2nc(C)c3c(C)n(-c4ccccc4)nc3c2=O)c1 (stereo unspecified)	inconclusive [inhibitor, partial curve]
COc1ccccc1Nc1nc(N)nc(CSc2nc(C)cc(C)n2)n1	inconclusive [inhibitor, single point]
CCOC(=O)C1=C(CC)Nc2ccccc2N=C1NC(=O)Cn1cnc2ccccc2c1=O	inconclusive [inhibitor, single point]
COc1cccc(/C=N/Nc2nccnc2Cl)c1O	active: 2.51 µM
N#CCCN1CCN(S(=O)(=O)c2ccc(C3CCCCC3)cc2)CC1	inconclusive [inhibitor, single point]
COC(=O)c1[nH]c2cc(OC)ccc2c1NC(=O)c1ccc2c(c1)OCO2	active: 2.51 µM
COc1ccccc1N1CCN(C2CC(=O)N(c3cccc(Cl)c3)C2=O)CC1 (stereo unspecified)	inconclusive [inhibitor, single point]
COc1ccccc1NC(=O)Cn1c(=O)n(C)c(=O)c2sc3c(c21)COC(C)(C)C3	inactive
COc1ccc(OC)c(NC(=O)c2cccnc2Sc2ccccc2)c1	inactive
Cc1oc(-c2ccc(Cl)cc2)nc1CS(=O)CC(=O)NCc1ccccc1 (stereo unspecified)	inactive
O=C(c1ccc(N2CCCCC2)c([N+](=O)[O-])c1)N1CCN(c2ccccn2)CC1	inconclusive [inhibitor, single point]
Cn1c(=O)cc(N2CCc3ccccc32)[nH]c1=O	inactive
Cc1cccc(C)c1-n1c(C)cc(/C=N\Nc2ccc([N+](=O)[O-])cn2)c1C	inconclusive [inhibitor, single point]
O=C(Oc1ccc(/C=N/O)cc1)c1ccccc1	inactive
CCC1CCCCN1S(=O)(=O)c1ccc(C(=O)Nc2nnc(-c3ccccc3Cl)o2)cc1 (stereo unspecified)	inconclusive [inhibitor, partial curve]
O=C(Cn1ncc(Cl)c(Cl)c1=O)N1CCN(Cc2ccccc2)CC1	active: 3.55 µM

SMILES	Potency
O=C1CSC(c2cn(-c3ccccc3)nc2-c2cc3ccccc3oc2=O)N1Cc1cccnc1 (stereo unspecified)	inconclusive [inhibitor, partial curve]
COC(=O)C1=C(C)N(Cc2ccccc2)C(=S)N[C@H]1c1cccc(C(F)(F)F)c1	inconclusive [inhibitor, single point]
CCOC(=O)c1sc(NC(=O)/C=C/c2cnn(CC)c2C)c(C(=O)OCC)c1C	inconclusive [inhibitor, full curve]
O=[N+]([O-])c1cc(C(F)(F)F)cc([N+](=O)[O-])c1N1CCCNCC1	inconclusive [inhibitor, single point]
COc1cccc(-c2cc(C(=O)Nc3cccnc3)no2)c1	inconclusive [inhibitor, partial curve]
O=C(Nc1cc(C(F)(F)F)ccc1N1CCOCC1)c1ccco1	inconclusive [inhibitor, partial curve, poor fit]
Cc1nn(C)c(C)c1CN(C)C(=O)c1nn2c(c1Br)NC(c1cccs1)CC2C(F)(F)F (stereo unspecified)	inactive
Cc1ccc(-c2nnc(Oc3ccc(NC(=O)c4ccccc4)cc3)c3ccccc23)cc1	inconclusive [inhibitor, full curve, poor fit]
CCOC(=O)C(=Cc1ccc(Br)cc1)C(=O)OCC	inconclusive [inhibitor, single point]
CN1C(=O)C(C)(C)c2cc(S(=O)(=O)N3CCN(c4ccc(F)cc4)CC3)ccc21	inconclusive [inhibitor, single point]
Cc1c(Cc2ccccc2)c(=O)oc2c(O)c(O)ccc12	inconclusive [inhibitor, single point]
CCC(C)N(C(=O)CSc1nnc(-c2cccs2)n1C1CC1)C1CCS(=O)(=O)C1 (stereo unspecified)	inactive
CCOCc1nnc(NC(=O)CCS(=O)(=O)Cc2ccccc2)s1	inconclusive [inhibitor, partial curve]
CC(NC(=O)c1cccs1)C(c1cccs1)N1CCOCC1 (stereo unspecified)	inactive
COc1ccc2c(c1)-c1nc(N)sc1CC2	inconclusive [inhibitor, single point]
CCn1c(Cn2nnc(-c3ccccc3)n2)nnc1SCC(=O)Nc1ccc(C(C)=O)cc1	inconclusive [inhibitor, partial curve]
COc1ccccc1OCC(=O)Nc1cc(Cl)ccc1N1CCCCC1	active: 10 µM
S=C(Nc1ccc2nc(-c3ccccn3)c(-c3ccccn3)nc2c1)N1CCCCCC1	inconclusive [inhibitor, single point]
CN(Cc1ccc(OC(F)F)cc1)C(=O)c1cccc(S(=O)(=O)N2CCN(c3ccccc3)CC2)c1	active: 5.01 µM
C#CCNCCS(=O)(=O)N(Cc1ccc(Br)cc1)[C@@H](CC(C)C)C(=O)O	inactive
CCOc1ccc2oc(C(=O)N(C)CC(=O)Nc3ccc(OCC)c(OCC)c3)c(C)c2c1	inconclusive [inhibitor, full curve, poor fit]
COc1ccccc1CC(O)CC1c2c(cc3c(c2OC)OCO3)CCN1C (stereo unspecified)	inconclusive [inhibitor, partial curve]
COc1ccc(OC)c2[nH]c(=O)c(CCNS(=O)(=O)c3ccc(C)cc3)cc12	inconclusive [inhibitor, single point]
